Test results published in US7160888B2, “[1,8]naphthyridin-2-ones and related compounds for the treatment of schizophrenia” (Warner Lambert Company LLC, priority 2003, dated 2007).

biological target: dopamine D2 receptor (Homo sapiens, UniProt P14416); assay: biochemical; settings: D2 Ki (nM), Table 1; 0.4 nM [3H]spiperone, CHO-hD2L membranes
Chain of UniProt P14416 (P14416 whole entry): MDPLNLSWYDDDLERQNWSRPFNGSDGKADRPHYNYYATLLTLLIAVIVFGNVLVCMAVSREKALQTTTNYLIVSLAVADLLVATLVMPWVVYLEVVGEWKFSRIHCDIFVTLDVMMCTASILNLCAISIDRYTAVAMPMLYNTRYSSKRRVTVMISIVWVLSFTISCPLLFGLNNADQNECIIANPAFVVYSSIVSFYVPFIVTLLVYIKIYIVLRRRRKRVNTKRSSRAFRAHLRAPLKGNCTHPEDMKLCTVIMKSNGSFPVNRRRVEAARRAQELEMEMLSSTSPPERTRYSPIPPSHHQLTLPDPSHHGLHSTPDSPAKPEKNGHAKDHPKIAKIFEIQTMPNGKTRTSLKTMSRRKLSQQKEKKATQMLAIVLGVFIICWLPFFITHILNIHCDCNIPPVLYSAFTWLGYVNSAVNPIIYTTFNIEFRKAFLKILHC

`O=C1CCc2cnc(OCCCCN3CCN(c4cccc5ccccc45)CC3)c(Br)c2N1` [Example I7, 8-Bromo-7-[4-(4-naphthalen-1-yl-piperazin-1-yl)-butoxy]-3,4-dihydro-1H-[1,6]naphthyridin-2-one] and `O=C1CCc2ccc(OCCCN3CCN(c4cccc5ccccc45)CC3)nc2N1` [Example C3, 7-[3-(4-Naphthalen-1-yl-piperazin-1-yl)-propoxy]-3,4-dihydro-1H-[1,8]naphthyridin-2-one] are within 1.5-fold of each other in Ki: 7.4 nM for the first, 6.8 nM for the second.

First: O=c1ccc2ccc(OCCCCN3CCN(c4cccc5c(Cl)cccc45)CC3)nc2[nH]1 [Example B58, 7-{4-[4-(5-Chloro-naphthalen-1-yl)-piperazin-1-yl]-butoxy}-1H-[1,8]naphthyridin-2-one]
Second: O=c1ccc2ccc(OCCCCN3CCN(c4cccc5ccccc45)CC3)nc2[nH]1 [Example B47, 7-[4-(4-Naphthalen-1-yl-piperazin-1-yl)-butoxy]-1H-[1,8]naphthyridin-2-one]
The Ki of the first is 42-fold higher: 12.5 nM for the first, 0.3 nM for the second. The second binds more tightly here.

Compared with `O=c1ccc2ccc(OCCCCN3CCN(c4c(F)ccc5ccccc45)CC3)nc2[nH]1` [Example B54, 7-{4-[4-(2-Fluoro-naphthalen-1-yl)-piperazin-1-yl]-butoxy}-1H-[1,8]naphthyridin-2-one], `COc1ccc2cccc(N3CCN(CCCCOc4ccc5ccc(=O)[nH]c5n4)CC3)c2c1` [Example B60, 7-{4-[4-(7-Methoxy-naphthalen-1-yl)-piperazin-1-yl]-butoxy}-1H-[1,8]naphthyridin-2-one] is 1.7-fold lower in Ki: 2.8 nM for the first, 1.6 nM for the second.

Going from `Cc1nc(OCCCCN2CCN(c3cccc4ccc(F)cc34)CC2)nc2[nH]c(=O)ccc12` [Example H10, 2-{4-[4-(7-Fluoro-naphthalen-1-yl)-piperazin-1-yl]-butoxy}-4-methyl-8H-pyrido[2,3-d]pyrimidin-7-one] to `Cc1nc(OCCCCN2CCN(c3cccc4c3CCC4)CC2)nc2[nH]c(=O)ccc12` [Example H8, 2-[4-(4-Indan-4-yl-piperazin-1-yl)-butoxy]-4-methyl-8H-pyrido[2,3-d]pyrimidin-7-one], the Ki falls from 3 nM to 1.3 nM (2.3-fold). The second binds more tightly here.

Compared with `CC1(C)CC(=O)Nc2nc(OCCCCN3CCN(c4cccc(Cl)c4Cl)CC3)ccc21` [Example D17, 7-{4-[4-(2,3-Dichloro-phenyl)-piperazin-1-yl]-butoxy}-4,4-dimethyl-3,4-dihydro-1H-[1,8]naphthyridin-2-one], `CC1(C)C(=O)Nc2nc(OCCCCN3CCN(c4cccc(Cl)c4Cl)CC3)ccc2C1O` (stereo not shown) [Example D15, 7-{4-[4-(2,3-Dichloro-phenyl)-piperazin-1-yl]-butoxy}-4-hydroxy-3,3-dimethyl-3,4-dihydro-1H-[1,8]naphthyridin-2-one] is 6.5-fold lower in Ki: 3.9 nM for the first, 0.6 nM for the second.

Going from `Cc1cccc(N2CCN(CCCCOc3ccc4c(n3)NC(=O)CC4)CC2)c1Oc1ccccc1` [Example A18, 7-{4-[4-(3-Methyl-2-phenoxy-phenyl)-piperazin-1-yl]-butoxy}-3,4-dihydro-1H-[1,8]naphthyridin-2-one] to `CC(=O)c1ccc2cccc(N3CCN(CCCCOc4ccc5c(n4)NC(=O)CC5)CC3)c2c1` [Example A78, 7-{4-[4-(7-Acetyl-naphthalen-1-yl)-piperazin-1-yl]-butoxy}-3,4-dihydro-1H-[1,8]naphthyridin-2-one], the Ki falls from 7.7 nM to 1.4 nM (5.5-fold). The second binds more tightly here.

`CC1(C)CCc2cccc(N3CCN(CCCCOc4ccc5c(n4)NC(=O)CC5)CC3)c2C1` [Example A53, 7-{4-[4-(7,7-Dimethyl-5,6,7,8-tetrahydro-naphthalen-1-yl)-piperazin-1-yl]-butoxy}-3,4-dihydro-1H-[1,8]naphthyridin-2-one] and `CC1(C)CC(=O)Nc2nc(OCCCCN3CCN(c4cccc5c4CCCC5)CC3)ccc21` [Example D18, 4,4-Dimethyl-7-{4-[4-(5,6,7,8-tetrahydro-naphthalen-1-yl)-piperazin-1-yl]-butoxy}-3,4-dihydro-1H-[1,8]naphthyridin-2-one] are within 1.5-fold of each other in Ki: 5.3 nM for the first, 4.7 nM for the second.

Going from `CC1(C)CCc2cccc(N3CCN(CCCCOc4ccc5ccc(=O)[nH]c5n4)CC3)c2C1` [Example B37, 7-{4-[4-(7,7-Dimethyl-5,6,7,8-tetrahydro-naphthalen-1-yl)-piperazin-1-yl]-butoxy}-1H-[1,8]naphthyridin-2-one] to `O=c1ccc2ccc(OCCCCN3CCN(c4cccc5c4CCC5)CC3)nc2[nH]1` [Example B32, 7-[4-(4-Indan-4-yl-piperazin-1-yl)-butoxy]-1H-[1,8]naphthyridin-2-one], the Ki falls from 4 nM to less than 2 nM. The second binds more tightly here.

Going from `Cc1nc(OCCCCN2CCN(c3cccc4c3CCCC4)CC2)nc2[nH]c(=O)ccc12` [Example H9, 4-Methyl-2-{4-[4-(5,6,7,8-tetrahydro-naphthalen-1-yl)-piperazin-1-yl]-butoxy}-8H-pyrido[2,3-d]pyrimidin-7-one] to `CCc1cccc(N2CCN(CCCCOc3nc(C)c4ccc(=O)[nH]c4n3)CC2)n1` [Example H7, 2-{4-[4-(6-Ethyl-pyridin-2-yl)-piperazin-1-yl]-butoxy}-4-methyl-8H-pyrido[2,3-d]pyrimidin-7-one], the Ki rises from 1 nM to 8.8 nM (8.8-fold).

First: Cc1cc(N2CCN(CCCCOc3ccc4c(n3)NC(=O)CC4)CC2)c(Cl)cc1F [Example A13, 7-{4-[4-(2-Chloro-4-fluoro-5-methyl-phenyl)-piperazin-1-yl]-butoxy}-3,4-dihydro-1H-[1,8]naphthyridin-2-one]
Second: O=C1CCc2cc(F)c(OCCCCN3CCN(c4cccc(Cl)c4Cl)CC3)nc2N1 [Example E3, 7-{4-[4-(2,3-Dichloro-phenyl)-piperazin-1-yl]-butoxy}-6-fluoro-3,4-dihydro-1H-[1,8]naphthyridin-2-one]
The Ki of the first is 11-fold higher: 11.4 nM for the first, 1 nM for the second.

Compared with `CC(=O)c1ccc2ccccc2c1N1CCN(CCCCOc2ccc3c(n2)NC(=O)CC3)CC1` [Example A82, 7-{4-[4-(2-Acetyl-naphthalen-1-yl)-piperazin-1-yl]-butoxy}-3,4-dihydro-1H-[1,8]naphthyridin-2-one], `O=C1CCc2ccc(OCCCCN3CCN(c4cccc(C(F)(F)F)c4)CC3)nc2N1` [Example A38, 7-{4-[4-(3-Trifluoromethyl-phenyl)-piperazin-1-yl]-butoxy}-3,4-dihydro-1H-[1,8]naphthyridin-2-one] is 4.7-fold lower in Ki: 28.1 nM for the first, 6 nM for the second.

First: O=c1ccc2ccc(OCCCCN3CCN(c4cccc(C(F)(F)F)c4Cl)CC3)nc2[nH]1 [Example B2, 7-{4-[4-(2-Chloro-3-trifluoromethyl-phenyl)-piperazin-1-yl]-butoxy}-1H-[1,8]naphthyridin-2-one]
Second: CC(=O)c1c(Cl)cccc1N1CCN(CCCCOc2ccc3ccc(=O)[nH]c3n2)CC1 [Example B3, 7-{4-[4-(2-Acetyl-3-chloro-phenyl)-piperazin-1-yl]-butoxy}-1H-[1,8]naphthyridin-2-one]
The Ki of the first is 1.6-fold lower: 2.5 nM for the first, 3.9 nM for the second. The first binds more tightly here.

First: O=C1Cc2cccc(N3CCN(CCCCOc4ccc5ccc(=O)[nH]c5n4)CC3)c2C1 [Example B45, 7-{4-[4-(2-Oxo-indan-4-yl)-piperazin-1-yl]-butoxy}-1H-[1,8]naphthyridin-2-one]
Second: N#Cc1ccc2cccc(N3CCN(CCCCOc4ccc5ccc(=O)[nH]c5n4)CC3)c2c1 [Example B67, 8-{4-[4-(7-Oxo-7,8-dihydro-[1,8]naphthyridin-2-yloxy)-butyl]-piperazin-1-yl}-naphthalene-2-carbonitrile]
The Ki of the first is 4.2-fold lower: 0.6 nM for the first, 2.5 nM for the second. The first binds more tightly here.

`O=C1CCc2cnc(OCCCCN3CCN(c4cccc5ccc(F)cc45)CC3)cc2N1` [Example I6, 7-{4-[4-(7-Fluoro-naphthalen-1-yl)-piperazin-1-yl]-butoxy}-3,4-dihydro-1H-[1,6]naphthyridin-2-one] and `Cc1cc(OCCCCN2CCN(c3cccc(Cl)c3Cl)CC2)nc2c1CCC(=O)N2` [Example E9, 7-{4-[4-(2,3-Dichloro-phenyl)-piperazin-1-yl]-butoxy}-5-methyl-3,4-dihydro-1H-[1,8]naphthyridin-2-one] are within 1.5-fold of each other in Ki: 1 nM for the first, 1.4 nM for the second.

`O=c1ccc2ccc(OCCCCN3CCN(c4ccc(F)c(Cl)c4)CC3)nc2[nH]1` [Example B14, 7-{4-[4-(3-Chloro-4-fluoro-phenyl)-piperazin-1-yl]-butoxy}-1H-[1,8]naphthyridin-2-one] gave a Ki of 6.5 nM.

same assay, conditions: D2 Ki (nM), Table 2; 0.4 nM [3H]spiperone, CHO-hD2L membranes

Compared with `CC1(C)CCc2cccc(N3CCN(CCCCOc4ccc5c(n4)NC(=O)CC5)CC3)c2O1` [Example A6′, 7-{4-[4-(2,2-Dimethyl-chroman-8-yl)-piperazin-1-yl]-butoxy}-3,4-dihydro-1H-[1,8]naphthyridin-2-one], `CC1CCc2cccc(N3CCN(CCCCOc4ccc5c(n4)NC(=O)CC5)CC3)c2O1` (stereo not shown) [Example A10′, 7-{4-[4-(2-Methyl-chroman-8-yl)-piperazin-1-yl]-butoxy}-3,4-dihydro-1H-[1,8]naphthyridin-2-one] is 5-fold lower in Ki: 2 nM for the first, 0.4 nM for the second. The second binds more tightly here.

Going from `Cc1ccc2cccc(N3CCN(CCCCOc4ccc5c(n4)NC(=O)CO5)CC3)c2n1` [Example F1′, 6-{4-[4-(2-Methyl-quinolin-8-yl)-piperazin-1-yl]-butoxy}-4H-pyrido[3,2-b][1,4]oxazin-3-one] to `O=C1CCc2ccc(OCCCCN3CCN(c4cccc5c4OCCO5)CC3)nc2N1` [Example A16′, 7-{4-[4-(2,3-Dihydro-benzo[1,4]dioxin-5-yl)-piperazin-1-yl]-butoxy}-3,4-dihydro-1H-[1,8]naphthyridin-2-one], the Ki rises from 0.7 nM to 2.5 nM (3.6-fold). The first binds more tightly here.

Compared with `Cc1nc(OCCCCN2CCN(c3cccc4c3OCCC4)CC2)nc2[nH]c(=O)ccc12` [Example G13′, 2-[4-(4-Chroman-8-yl-piperazin-1-yl)-butoxy]-4-methyl-8H-pyrido[2,3-d]pyrimidin-7-one], `O=C1CCc2ccc(OCCCCN3CCN(c4cccc5c4OCCC5=O)CC3)nc2N1` [Example A20′, 7-{4-[4-(4-Oxo-chroman-8-yl)-piperazin-1-yl]-butoxy}-3,4-dihydro-1H-[1,8]naphthyridin-2-one] is 26-fold higher in Ki: 2.5 nM for the first, 65.1 nM for the second.

First: O=C1CCc2cnc(OCCCCN3CCN(c4cccc5c4OC(F)(F)C(F)(F)O5)CC3)cc2N1 [Example H3′, 7-{4-[4-(2,2,3,3-Tetrafluoro-2,3-dihydro-benzo[1,4]dioxin-5-yl)-piperazin-1-yl]-butoxy}-3,4-dihydro-1H-[1,6]naphthyridin-2-one]
Second: O=c1ccc2ccc(OCCCCN3CCN(c4cccc5c4OC4(C=C5)CCCC4)CC3)nc2[nH]1 [Example B6′, 7-{4-[4-(Spiro[chromene-2,1′-cyclopentan]-8-yl)-piperazin-1-yl]-butoxy}-1H-[1,8]naphthyridin-2-one]
The Ki of the first is 2-fold higher: 2 nM for the first, 1 nM for the second.
